# Results published in patent US8592383B2, “Cycloalkyl-fused tetrahydroquinolines as CRTH2 receptor modulators” (Merck Sharp & Dohme Corp., priority 2011, dated 2013).
# Biological target: T1, hCRTH2 (Homo sapiens, UniProt Q9Y5Y4)
# T1 sequence (Q9Y5Y4 1-395): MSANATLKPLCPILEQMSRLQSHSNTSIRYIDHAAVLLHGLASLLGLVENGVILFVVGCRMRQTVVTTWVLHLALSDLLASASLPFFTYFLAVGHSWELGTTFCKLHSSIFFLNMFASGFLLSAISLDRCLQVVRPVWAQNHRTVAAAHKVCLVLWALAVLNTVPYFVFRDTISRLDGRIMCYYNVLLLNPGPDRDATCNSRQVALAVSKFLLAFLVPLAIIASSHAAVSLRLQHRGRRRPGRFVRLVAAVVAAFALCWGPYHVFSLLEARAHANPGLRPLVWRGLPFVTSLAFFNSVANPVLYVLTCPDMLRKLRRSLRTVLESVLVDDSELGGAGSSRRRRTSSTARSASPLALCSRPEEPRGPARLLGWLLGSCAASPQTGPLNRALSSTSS
# Assay: biochemical
# Conditions: Ki (nM), Table A; Radioligand Binding Assay A, [3H]PGD2, HEK-hCRTH2 membranes
row,SMILES,Ki [nM]
1,"O=C(O)CCC(=O)N(C1CC1)C1c2cc(F)c(F)cc2N(C(=O)c2ccc(OC(F)(F)F)cc2)C2CCC21 (single isomer, unassigned) [compound 52, 4-(Cyclopropyl(cis,cis-5,6-difluoro-3-(4-(trifluoromethoxy)benzoyl)-1,2,2a,3,8,8a-hexahydrocyclobuta[b]quinolin-8-yl)amino)-4-oxobutanoic acid]",1 to 5
2,"C=Cc1ccc2c(c1)[C@@H](N(C(=O)CCC(=O)O)C1CC1)[C@H]1CCC[C@H]1N2C(=O)c1ccc(OC(F)(F)F)cc1 (single isomer, unassigned) [compound 53, 4-(Cyclopropyl((cis,cis,)-4-(4-(trifluoromethoxy)benzoyl)-7-vinyl-2,3,3a,4,9,9a-hexahydro-1H-cyclopenta[b]quinolin-9-yl)amino)-4-oxobutanoic acid]",5.1 to 20
3,"CCc1ccc2c(c1)[C@@H](N(C(=O)CCC(=O)O)C1CC1)[C@H]1CCC[C@H]1N2C(=O)c1ccc(OC(F)(F)F)cc1 (single isomer, unassigned) [compound 54, 4-(Cyclopropyl((cis,cis,)-7-ethyl-4-(4-(trifluoromethoxy)benzoyl)-2,3,3a,4,9,9a-hexahydro-1H-cyclopenta[b]quinolin-9-yl)amino)-4-oxobutanoic acid]",20.1 to 200
4,"O=C(O)CCC(=O)N(C1CC1)[C@@H]1c2cc(CF)ccc2N(C(=O)c2ccc(OC(F)(F)F)cc2)[C@@H]2CCC[C@@H]21 (single isomer, unassigned) [compound 56, 4-(Cyclopropyl((cis,cis,)-7-(fluoromethyl)-4-(4-(trifluoromethoxy)benzoyl)-2,3,3a,4,9,9a-hexahydro-1H-cyclopenta[b]quinolin-9-yl)amino)-4-oxobutanoic acid]",5.1 to 20
5,"O=C(O)CCC(=O)N(C1CC1)[C@@H]1c2cc(C(F)F)ccc2N(C(=O)c2ccc(OC(F)(F)F)cc2)[C@@H]2CCC[C@@H]21 (single isomer, unassigned) [compound 57, 4-(cyclopropyl((cis,cis,)-7-(difluoromethyl)-4-(4-(trifluoromethoxy)benzoyl)-2,3,3a,4,9,9a-hexahydro-1H-cyclopenta[b]quinolin-9-yl)amino)-4-oxobutanoic acid]",5.1 to 20
6,"O=C(O)[C@H]1CCN1C(=O)N(C1CC1)C1c2ccccc2N(C(=O)OCc2ccccc2)C2CCCC21 (single isomer, unassigned) [compound 58]",20.1 to 200
7,"O=C(O)[C@@H]1CCN1C(=O)N(C1CC1)C1c2ccccc2N(C(=O)OCc2ccccc2)C2CCCC21 (single isomer, unassigned) [compound 59]",201 to 7500
8,"O=C(O)CCCN(C1CC1)C1c2ccccc2N(C(=O)OCc2ccccc2)C2CCCC21 (single isomer, unassigned) [compound 60, 4-(phenylmethyl) cis, cis-[(3-carboxypropyl)cyclopropylamino]-1,2,3,3a,9,9a-hexahydro-4H-cyclopenta[b]quinoline-4-carboxylate]",20.1 to 200
9,"O=C(O)CCC(=O)N(C1CC1)C1c2ccccc2N(C(=O)O[C@@H](c2ccccc2)C(F)(F)F)C2CCCC21 (single isomer, unassigned) [compound 77]",20.1 to 200
10,"O=C(O)CCC(=O)N(C1CC1)C1c2ccccc2N(C(=O)O[C@H](c2ccccc2)C(F)(F)F)C2CCCC21 (single isomer, unassigned) [compound 78]",5.1 to 20
11,"O=C(O)CCC(=O)N(C1CC1)C1c2ccccc2N(C(=O)OCc2cccc3cccnc23)C2CCCC21 (single isomer, unassigned) [compound 79, (cis, cis)-4H-cyclopenta[b]quinoline-4-carboxylic acid, 9-[(3-carboxy-1-oxopropyl)cyclopropylamino]-1,2,3,3a,9,9a-hexahydro-, 4-(8-quinolinylmethyl) ester]",20.1 to 200

# Continued, values first:
row,Ki [nM],SMILES
1,5.1 to 20,"CCN(C(=O)CCC(=O)O)C1c2ccccc2N(C(=O)c2ccc(F)cc2)C2CCCC12 (single isomer, unassigned) [compound 61, 4-[ethyl[cis, cis-4-(4-fluorobenzoyl)-2,3,3a,9,9a-hexahydro-1H-cyclopenta[b]quinolin-9-yl]amino]-4-oxobutanoic acid]"
2,5.1 to 20,"CCN(C(=O)CCC(=O)O)C1c2ccccc2N(C(=O)c2ccc(F)c(F)c2)C2CCCC12 (single isomer, unassigned) [compound 62]"
3,5.1 to 20,"O=C(O)CCC(=O)N(C1CC1)C1c2ccccc2N(C(=O)c2ccc(SC(F)(F)F)cc2)C2CCCC21 (single isomer, unassigned) [compound 63, 4-[cyclopropyl[cis, cis-2,3,3a,4,9,9a-hexahydro-4-[4-[(trifluoromethyl)thio]benzoyl]-1H-cyclopenta[b]quinolin-9-yl]amino]-4-oxobutanoic acid]"
4,5.1 to 20,"CCN(C(=O)CCC(=O)O)C1c2ccccc2N(C(=O)c2cc(F)cc(F)c2)C2CCCC12 (single isomer, unassigned) [compound 64]"
5,5.1 to 20,"CCc1ccc(C(=O)N2c3ccccc3C(N(CC)C(=O)CCC(=O)O)C3CCCC32)cc1 (single isomer, unassigned) [compound 65, 4-[ethyl[cis, cis-4-(4-ethylbenzoyl)-2,3,3a,4,9,9a-hexahydro-1H-cyclopenta[b]quinolin-9-yl]amino]-4-oxobutanoic acid]"
6,5.1 to 20,"CCN(C(=O)CCC(=O)O)C1c2ccccc2N(C(=O)c2cc(F)c(F)c(F)c2)C2CCCC12 (single isomer, unassigned) [compound 66, 4-[ethyl[cis, cis-2,3,3a,4,9,9a-hexahydro-4-(3,4,5-trifluorobenzoyl)-1H-cyclopenta[b]quinolin-9-yl]amino]-4-oxobutanoic acid]"
7,5.1 to 20,"CCN(C(=O)CCC(=O)O)C1c2ccccc2N(C(=O)c2ccc(F)c(C(F)(F)F)c2)C2CCCC12 (single isomer, unassigned) [compound 67, 4-[ethyl[cis, cis-4-[4-fluoro-3-(trifluoromethyl)benzoyl]-2,3,3a,4,9,9a-hexahydro-1H-cyclopenta[b]quinolin-9-yl]amino]-4-oxobutanoic acid]"
8,5.1 to 20,"CCN(C(=O)CCC(=O)O)C1c2ccccc2N(C(=O)c2ccc(C(F)(F)F)cc2)C2CCCC12 (single isomer, unassigned) [compound 68, 4-[ethyl[cis, cis-2,3,3a,4,9,9a-hexahydro-4-[4-(trifluoromethyl)benzoyl]-1H-cyclopenta[b]quinolin-9-yl]amino]-4-oxobutanoic acid]"
9,1 to 5,"CCN(C(=O)CCC(=O)O)C1c2ccccc2N(C(=O)C2CC2c2ccccc2)C2CCCC12 (single isomer, unassigned) [compound 69, 4-[ethyl[cis, cis-2,3,3a,4,9,9a-hexahydro-4-[(2-phenyl-1-cyclopropyl)carbonyl]-1H-cyclopenta[b]quinolin-9-yl]amino]-4-oxobutanoic acid]"
10,20.1 to 200,"O=C(O)CCCN(C1CCC1)C1c2ccccc2N(C(=O)c2ccc(OC(F)(F)F)cc2)C2CCCC21 (single isomer, unassigned) [compound 70, 4-[cyclobutyl[cis, cis-2,3,3a,4,9,9a-hexahydro-4-[4-(trifluoromethoxy)benzoyl]-1H-cyclopenta[b]quinolin-9-yl]amino]butanoic acid]"
11,1 to 5,"CCN(C(=O)CCC(=O)O)C1c2ccccc2N(C(=O)OCc2ccc(F)cc2)C2CCCC12 (single isomer, unassigned) [compound 71, 4-[(4-fluorophenyl)methyl] cis, cis-[(3-carboxy-1-oxopropyl)ethylamino]-1,2,3,3a,9,9a-hexahydro-4H-cyclopenta[b]quinoline-4-carboxylate]"
12,5.1 to 20,"CCN(C(=O)CCC(=O)O)C1c2ccccc2N(C(=O)OCc2ccc(F)c(F)c2)C2CCCC12 (single isomer, unassigned) [compound 72, 4-[(3,4-difluorophenyl)methyl] cis, cis-[(3-carboxy-1-oxopropyl)ethylamino]-1,2,3,3a,9,9a-hexahydro-4H-cyclopenta[b]quinoline-4-carboxylate]"
13,20.1 to 200,"CCN(C(=O)CCC(=O)O)C1c2ccccc2N(C(=O)OCc2cc(F)cc(F)c2)C2CCCC12 (single isomer, unassigned) [compound 73, 4-[(3,5-difluorophenyl)methyl] cis, cis-[(3-carboxy-1-oxopropyl)ethylamino]-1,2,3,3a,9,9a-hexahydro-4H-cyclopenta[b]quinoline-4-carboxylate]"
14,5.1 to 20,"CCN(C(=O)CCC(=O)O)C1c2ccccc2N(C(=O)OCc2ccc(C(F)(F)F)cc2)C2CCCC12 (single isomer, unassigned) [compound 75, 4-[[4-(trifluoromethyl)phenyl]methyl] cis, cis-[(3-carboxy-1-oxopropyl)ethylamino]-1,2,3,3a,9,9a-hexahydro-4H-cyclopenta[b]quinoline-4-carboxylate]"
15,5.1 to 20,"CCN(C(=O)CCC(=O)O)C1c2ccccc2N(C(=O)OCc2cccc(F)c2)C2CCCC12 (single isomer, unassigned) [compound 76, 4-[(3-fluorophenyl)methyl] cis, cis-[(3-carboxy-1-oxopropyl)ethylamino]-1,2,3,3a,9,9a-hexahydro-4H-cyclopenta[b]quinoline-4-carboxylate]"
16,5.1 to 20,"CCN(C(=O)CCC(=O)O)C1c2ccccc2N(C(=O)c2ccc(-c3ccccc3)cc2)C2CCC12 (single isomer, unassigned) [compound 80, 4-((cis, cis-3-(biphenylcarbonyl)-1,2,2a,3,8,8a-hcxahydrocyclobuta[b]quinolin-8-yl)(ethyl)amino)-4-oxobutanoic acid]"
